In publication PMC10919853 one finds binding data, which are given here for six molecules.

The target in assay [1] is FLAG-Nav1.5 (pcDNA3.1-3X-FLAG-SCN5A-WT) (human) (UniProt Q14524). Nature of the assay: co-IP; anti-FLAG M2 magnetic beads; lysates (1% digitonin) of tsA201 expressing FLAG-Nav1.5, with non-tagged Nav1.5 as control, 48 h after transient overexpression of one HA-tagged 14-3-3 isoform; beads washed with TBS; immunoblot.
For assay [2], the target named is Nav1.5 (non-tagged, pcDNA3.1-SCN5A-WT) (human) (UniProt Q14524). The experiment in a line: co-IP; nProtein A Sepharose beads pre-coupled with anti-Nav1.5 antibody; lysates of tsA201 cells 48 h after transient co-expression of Nav1.5 with empty vector, HA-14-3-3σ or HA-14-3-3η; immunoblot.
Assay [3] concerns the target FLAG-Nav1.5 (pcDNA3.1-3X-FLAG-SCN5A-WT) (human) (UniProt Q14524). The experiment in a line: co-IP; anti-FLAG M2 magnetic beads; lysates (1% digitonin) of tsA201 expressing FLAG-Nav1.5, with non-tagged Nav1.5 as control, 48 h after transient overexpression of one HA-tagged 14-3-3 isoform; beads washed with TBS; immunoblot. The source holds these as a separate data set.

Read-outs that look alike come from different tables or passages of the source. Results are given in words; binding and its absence hold for the method and conditions named. In cells and extracts the contact can be indirect. Some entries that bind do so weakly or less than the wild type. For some of these results: Where a sequence is shown, tags or fusion partners need not be part of it.

On to “HA-tagged 14-3-3 ε (pcDNA3-HA-YWHAE-WT) (from UniProt P62258-1 1-255)”, for which, in assay [1], the binding entry is listed as “no binding”.
Still for that read-out and setting: for “HA-tagged 14-3-3 β/α (pcDNA3-HA-YWHAB-WT) (from UniProt P31946-1 1-246)” the value was “no binding”.

B1: HA-tagged 14-3-3η (pcDNA3-HA-YWHAH-WT) (protein, UniProt Q04917 1-246)
chain: MGDREQLLQRARLAEQAERYDDMASAMKAVTELNEPLSNEDRNLLSVAYKNVVGARRSSWRVISSIEQKTMADGNEKKLEKVKAYREKIEKELETVCNDVLSLLDKFLIKNCNDFQYESKVFYLKMKGDYYRYLAEVASGEKKNSVVEASEAAYKEAFEISKEQMQPTHPIRLGLALNFSVFYYEIQNAPEQACLLAKQAFDDAIAELDTLNEDSYKDSTLIMQLLRDNLTLWTSDQQDEEAGEGN
In the case of B1, the binding entry in assay [2] and in assay [3] was “binds weakly” each time.

B2: HA-tagged 14-3-3θ (pcDNA3-HA-YWHAQ-WT) (protein, UniProt P27348 1-245)
chain: MEKTELIQKAKLAEQAERYDDMATCMKAVTEQGAELSNEERNLLSVAYKNVVGGRRSAWRVISSIEQKTDTSDKKLQLIKDYREKVESELRSICTTVLELLDKYLIANATNPESKVFYLKMKGDYFRYLAEVACGDDRKQTIDNSQGAYQEAFDISKKEMQPTHPIRLGLALNFSVFYYEILNNPELACTLAKTAFDEAIAELDTLNEDSYKDSTLIMQLLRDNLTLWTSDSAGEECDAAEGAEN
As for B2, in assay [3], the binding result is given as “no binding”.

B3: HA-tagged 14-3-3 γ (pcDNA3-HA-YWHAG-WT) (protein, UniProt P61981 1-247)
chain: MVDREQLVQKARLAEQAERYDDMAAAMKNVTELNEPLSNEERNLLSVAYKNVVGARRSSWRVISSIEQKTSADGNEKKIEMVRAYREKIEKELEAVCQDVLSLLDNYLIKNCSETQYESKVFYLKMKGDYYRYLAEVATGEKRATVVESSEKAYSEAHEISKEHMQPTHPIRLGLALNYSVFYYEIQNAPEQACHLAKTAFDDAIAELDTLNEDSYKDSTLIMQLLRDNLTLWTSDQQDDDGGEGNN
B3: the binding entry in assay [3] was “no binding”.

B4: α1-syntrophin (protein, UniProt Q13424 1-505)
chain: MASGRRAPRTGLLELRAGAGSGAGGERWQRVLLSLAEDVLTVSPADGDPGPEPGAPREQEPAQLNGAAEPGAGPPQLPEALLLQRRRVTVRKADAGGLGISIKGGRENKMPILISKIFKGLAADQTEALFVGDAILSVNGEDLSSATHDEAVQVLKKTGKEVVLEVKYMKDVSPYFKNSTGGTSVGWDSPPASPLQRQPSSPGPTPRNFSEAKHMSLKMAYVSKRCTPNDPEPRYLEICSADGQDTLFLRAKDEASARSWATAIQAQVNTLTPRVKDELQALLAATSTAGSQDIKQIGWLTEQLPSGGTAPTLALLTEKELLLYLSLPETREALSRPARTAPLIATRLVHSGPSKGSVPYDAELSFALRTGTRHGVDTHLFSVESPQELAAWTRQLVDGCHRAAEGVQEVSTACTWNGRPCSLSVHIDKGFTLWAAEPGAARAVLLRQPFEKLQMSSDDGASLLFLDFGGAEGEIQLDLHSCPKTIVFIIHSFLSAKVTRLGLLA
With B4, the binding entry in assay [2] is “binds”.
